# This is one part of the list.
# B1: Surfactant Protein D (Human); Neck + Carbohydrate Recognition Domain (NCRD) (Homo sapiens) (protein)
# chain: MLLFLLSALVLLTQPLGYLEAEMKTYSHRTMPSACTLVMCSSVESGLPGRDRDGREGPRGEKGDPGLPGAAGQAGMPGQAGPVGPKGDNGSVGEPGPKGDTGPSGPPGPPGVPGPAGREGALGKQGNIGPQGKPGPKGEAGPKGEVGAPGMQGSAGARGLAGPKGERGVPGERGVPGNTGAAGSAGAMGPQGSPGARGPPGLKGDKGIPGDKGAKGESGLPDVASLRQQVEALQGQVQHLQAAFSQYKKVELFPNGQSVGEKIFKTAQFVKPFTEAQLLCTQAGGQLASPRSAAENAALQQLVVAKNEAAFLSMTDSKTEGKFTYPTGESLVYSNWAPGEPNDDGGSEDCVEIFTNGKWNDRACGEKRLVVCEA
# Experiments:
# Experiment in all cases: glycan array binding signal (z-score within array); higher = stronger binding
# Conditions in all cases: glycan notation: IUPAC condensed, linker removed; mutation: F355A
# [1] = target: Fuc(a1-2)Gal
# Procedure, shortened: (§1)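 Glycan array binding is given as a within-array Z-score, which can be read as non-binding when negative. The arrays, 3228 of them, came from the Consortium for Functional Glycomics database and were retained only where the protein sequence was available. Z-scores were averaged across arrays of the same protein sequence at different concentrations or buffers and across linkers.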
# [2] = target: Fuc(a1-2)Gal(b1-3)GalNAc
# Procedure, shortened: as §1
# [3] = target: Fuc(a1-2)Gal(b1-3)GalNAc(b1-3)Gal
# Procedure, shortened: as §1
# [4] = target: Fuc(a1-2)Gal(b1-3)GalNAc(b1-3)Gal(a1-4)Gal(b1-4)Glc
# Procedure, shortened: as §1
# [5] = target: Fuc(a1-2)Gal(b1-3)GalNAc(b1-4)[Neu5Ac(a2-3)]Gal(b1-4)Glc
# Procedure, shortened: as §1
# [6] = target: Fuc(a1-2)Gal(b1-3)GlcNAc
# Procedure, shortened: as §1
# [7] = target: Fuc(a1-2)Gal(b1-3)GlcNAc(b1-3)Gal(b1-4)Glc
# Procedure, shortened: as §1
# [8] = target: Fuc(a1-2)Gal(b1-3)[Fuc(a1-4)]GlcNAc
# Procedure, shortened: as §1
# [9] = target: Fuc(a1-2)Gal(b1-4)Glc
# Procedure, shortened: as §1
# [10] = target: Fuc(a1-2)Gal(b1-4)Glc6S
# Procedure, shortened: as §1
# [11] = target: Fuc(a1-2)Gal(b1-4)GlcNAc
# Procedure, shortened: as §1
# [12] = target: Fuc(a1-2)Gal(b1-4)GlcNAc(b1-3)Gal(b1-4)GlcNAc
# Procedure, shortened: as §1
# [13] = target: Fuc(a1-2)Gal(b1-4)GlcNAc(b1-3)Gal(b1-4)GlcNAc(b1-3)Gal(b1-4)GlcNAc
# Procedure, shortened: as §1
# [14] = target: Fuc(a1-2)Gal(b1-4)GlcNAc6S
# Procedure, shortened: as §1
# [15] = target: Fuc(a1-2)Gal(b1-4)[Fuc(a1-3)]GlcNAc
# Procedure, shortened: as §1
# [16] = target: Fuc(a1-2)Gal(b1-4)[Fuc(a1-3)]GlcNAc(b1-3)Gal(b1-4)[Fuc(a1-3)]GlcNAc
# Procedure, shortened: as §1
# [17] = target: Fuc(a1-2)Gal(b1-4)[Fuc(a1-3)]GlcNAc(b1-3)Gal(b1-4)[Fuc(a1-3)]GlcNAc(b1-3)Gal(b1-4)[Fuc(a1-3)]GlcNAc
# Procedure, shortened: as §1
# [18] = target: Fuc(a1-2)Gal6S(b1-4)Glc
# Procedure, shortened: as §1
# [19] = target: Fuc(a1-2)Gal6S(b1-4)Glc6S
# Procedure, shortened: as §1
# [20] = target: Fuc(a1-2)Gal6S(b1-4)GlcNAc
# Procedure, shortened: as §1
# [21] = target: Fuc(a1-2)[Gal(a1-3)]Gal
# Procedure, shortened: as §1
# [22] = target: Fuc(a1-2)[Gal(a1-3)]Gal(b1-3)GlcNAc
# Procedure, shortened: as §1
# [23] = target: Fuc(a1-2)[Gal(a1-3)]Gal(b1-4)Glc
# Procedure, shortened: as §1
# [24] = target: Fuc(a1-2)[Gal(a1-3)]Gal(b1-4)GlcNAc
# Procedure, shortened: as §1
# [25] = target: Fuc(a1-2)[Gal(a1-3)]Gal(b1-4)[Fuc(a1-3)]GlcNAc
# Procedure, shortened: as §1
# [26] = target: Fuc(a1-2)[Gal(a1-4)]Gal(b1-4)GlcNAc
# Procedure, shortened: as §1
# [27] = target: Fuc(a1-2)[GalNAc(a1-3)]Gal
# Procedure, shortened: as §1
# [28] = target: Fuc(a1-2)[GalNAc(a1-3)]Gal(b1-3)GlcNAc
# Procedure, shortened: as §1
# [29] = target: Fuc(a1-2)[GalNAc(a1-3)]Gal(b1-4)Glc
# Procedure, shortened: as §1
# [30] = target: Fuc(a1-2)[GalNAc(a1-3)]Gal(b1-4)GlcNAc
# Procedure, shortened: as §1
# [31] = target: Fuc(a1-2)[GalNAc(a1-3)]Gal(b1-4)[Fuc(a1-3)]GlcNAc
# Procedure, shortened: as §1
# [32] = target: Fuc(a1-2)[GalNAc(a1-4)]Gal(b1-4)GlcNAc
# Procedure, shortened: as §1
# [33] = target: Fuc(a1-2)[GalNAc(b1-3)]Gal
# Procedure, shortened: as §1
# [34] = target: Fuc(a1-3)GlcNAc
# Procedure, shortened: as §1
# [35] = target: Fuc(a1-3)[Gal(b1-4)]Glc6S
# Procedure, shortened: as §1
# [36] = target: Fuc(a1-3)[Gal(b1-4)]GlcNAc
# Procedure, shortened: as §1
# [37] = target: Fuc(a1-3)[Gal(b1-4)]GlcNAc(b1-2)Man(a1-3)[Fuc(a1-3)[Gal(b1-4)]GlcNAc(b1-2)Man(a1-6)]Man(b1-4)GlcNAc(b1-4)GlcNAc
# Procedure, shortened: as §1
# [38] = target: Fuc(a1-3)[Gal(b1-4)]GlcNAc(b1-2)Man(a1-6)[Gal(b1-4)GlcNAc(b1-2)Man(a1-3)]Man(b1-4)GlcNAc(b1-4)GlcNAc
# Procedure, shortened: as §1
# [39] = target: Fuc(a1-3)[Gal(b1-4)]GlcNAc(b1-3)Gal(b1-3)[Fuc(a1-4)]GlcNAc
# Procedure, shortened: as §1
# [40] = target: Fuc(a1-3)[Gal(b1-4)]GlcNAc(b1-4)Gal(b1-4)[Fuc(a1-3)]GlcNAc
# Procedure, shortened: as §1
# [41] = target: Fuc(a1-3)[Gal(b1-4)]GlcNAc(b1-4)Gal(b1-4)[Fuc(a1-3)]GlcNAc(b1-4)Gal(b1-4)[Fuc(a1-3)]GlcNAc
# Procedure, shortened: as §1
# [42] = target: Fuc(a1-3)[Gal(b1-4)]GlcNAc6S
# Procedure, shortened: as §1
# [43] = target: Fuc(a1-3)[Gal3S(b1-4)]Glc6S
# Procedure, shortened: as §1
# [44] = target: Fuc(a1-3)[Gal3S(b1-4)]GlcNAc
# Procedure, shortened: as §1
# [45] = target: Fuc(a1-3)[Gal3S(b1-4)]GlcNAc6S
# Procedure, shortened: as §1
binder,measurement,setting,value
B1,glycan array binding signal (z-score),[1],-0.15
same,glycan array binding signal (z-score),[2],-0.158
same,glycan array binding signal (z-score),[3],-0.129
same,glycan array binding signal (z-score),[4],-0.147
same,glycan array binding signal (z-score),[5],-0.131
same,glycan array binding signal (z-score),[6],-0.126
same,glycan array binding signal (z-score),[7],-0.112
same,glycan array binding signal (z-score),[8],-0.103
same,glycan array binding signal (z-score),[9],-0.135
same,glycan array binding signal (z-score),[10],-0.123
same,glycan array binding signal (z-score),[11],-0.156
same,glycan array binding signal (z-score),[12],-0.098
same,glycan array binding signal (z-score),[13],-0.155
same,glycan array binding signal (z-score),[14],-0.08
same,glycan array binding signal (z-score),[15],-0.133
same,glycan array binding signal (z-score),[16],-0.134
same,glycan array binding signal (z-score),[17],-0.141
same,glycan array binding signal (z-score),[18],-0.102
same,glycan array binding signal (z-score),[19],-0.071
same,glycan array binding signal (z-score),[20],-0.146
same,glycan array binding signal (z-score),[21],-0.109
same,glycan array binding signal (z-score),[22],-0.079
same,glycan array binding signal (z-score),[23],-0.152
same,glycan array binding signal (z-score),[24],0.036
same,glycan array binding signal (z-score),[25],-0.152
same,glycan array binding signal (z-score),[26],-0.125
same,glycan array binding signal (z-score),[27],-0.083
same,glycan array binding signal (z-score),[28],-0.149
same,glycan array binding signal (z-score),[29],-0.086
same,glycan array binding signal (z-score),[30],-0.152
same,glycan array binding signal (z-score),[31],-0.163
same,glycan array binding signal (z-score),[32],-0.084
same,glycan array binding signal (z-score),[33],-0.13
same,glycan array binding signal (z-score),[34],-0.121
same,glycan array binding signal (z-score),[35],-0.137
same,glycan array binding signal (z-score),[36],-0.106
same,glycan array binding signal (z-score),[37],-0.172
same,glycan array binding signal (z-score),[38],-0.143
same,glycan array binding signal (z-score),[39],-0.121
same,glycan array binding signal (z-score),[40],-0.04
same,glycan array binding signal (z-score),[41],-0.16
same,glycan array binding signal (z-score),[42],-0.1
same,glycan array binding signal (z-score),[43],-0.058
same,glycan array binding signal (z-score),[44],-0.132
same,glycan array binding signal (z-score),[45],-0.08

# — the supplement of paper PMC8728848
